# Measured values published in the supplement of paper PMC12067230.
# Single values of this set are uncertain.
# Assay: amyloid nucleation score relative to library mode (yeast Sup35 reporter selection) (log enrichment difference); higher = more amyloid nucleation; sequences are the first 22 residues of the Bri2 peptide extended by up to 12 random residues
# Conditions: random library (experiment): 1;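 active = nucleation score significantly above 0 at FDR 0.05; inactive = not significantly above 0 or absent from output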
# 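Also: [psi-pin-] Saccharomyces cerevisiae expressing SupN fusions, induced by 100 µM Cu2SO4, selected 7 d at 30 °C without adenine and uracil, scored by deep sequencing of output versus input.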
row,Sequence,amyloid nucleation score
1,EASNCFAIRHFENKFAVETLICRM,inactive
2,EASNCFAIRHFENKFAVETLICFNVPRIRHFTPS,4.71
3,EASNCFAIRHFENKFAVETLICRKGYDRHFRANR,-0.456
4,EASNCFAIRHFENKFAVETLICELRLYVRCRSWG,inactive
5,EASNCFAIRHFENKFAVETLICVVLVGLNSMLKT,inactive
6,EASNCFAIRHFENKFAVETLICLVVYRLRDWGKG,inactive
7,EASNCFAIRHFENKFAVETLICAAWASGDWVEEW,inactive
8,EASNCFAIRHFENKFAVETLICRGRVMTSAAGGW,inactive
9,EASNCFAIRHFENKFAVETLICYICRCS,4.5
10,EASNCFAIRHFENKFAVETLICDFPSAWTSKVER,inactive
11,EASNCFAIRHFENKFAVETLICIGVSGPRRVRAH,inactive
12,EASNCFAIRHFENKFAVETLICLPESIMVSSLRV,-0.116
13,EASNCFAIRHFENKFAVETLICVVWCVGKRFCRR,5.62
14,EASNCFAIRHFENKFAVETLICCYGCRLTFVTVV,inactive
15,EASNCFAIRHFENKFAVETLICHLVDRV,inactive
16,EASNCFAIRHFENKFAVETLICFHNANIMWSDFV,inactive
17,EASNCFAIRHFENKFAVETLICRESRRAGFRVPG,inactive
18,EASNCFAIRHFENKFAVETLICTSLL,2.1
19,EASNCFAIRHFENKFAVETLICPECGPCGFYDGG,inactive
20,EASNCFAIRHFENKFAVETLICTHQLQCFRNFTG,inactive
21,EASNCFAIRHFENKFAVETLICESVMACGRCWSC,5.57
22,EASNCFAIRHFENKFAVETLICIVNPLCCCGSEV,7.78
23,EASNCFAIRHFENKFAVETLICRW,0.453
24,EASNCFAIRHFENKFAVETLICPYELGVIRRSVR,inactive
25,EASNCFAIRHFENKFAVETLICPQRIMSGSVICH,inactive

row,Sequence,amyloid nucleation score
1,EASNCFAIRHFENKFAVETLICGFTSQKQLGRAG,inactive
2,EASNCFAIRHFENKFAVETLICELNSL,inactive
3,EASNCFAIRHFENKFAVETLICCKRVLCSECAIG,inactive
4,EASNCFAIRHFENKFAVETLICNMLLISVVNWFR,0.609
5,EASNCFAIRHFENKFAVETLICCIRNSYYRDLCV,6.31
6,EASNCFAIRHFENKFAVETLICHA,inactive
7,EASNCFAIRHFENKFAVETLICIIAFRKRTRSEP,inactive
8,EASNCFAIRHFENKFAVETLICWWMDLLPWGDQK,-0.0194
9,EASNCFAIRHFENKFAVETLICHFQWRDLSGELR,2.59
10,EASNCFAIRHFENKFAVETLICEMGGAGADKEWV,inactive
11,EASNCFAIRHFENKFAVETLICCLYMSVPGFSLS,3.55
12,EASNCFAIRHFENKFAVETLICARCSV,inactive
13,EASNCFAIRHFENKFAVETLICFVMIVKVLPVSE,inactive
14,EASNCFAIRHFENKFAVETLICFAGA,inactive
15,EASNCFAIRHFENKFAVETLICDGRLQSGGIR,inactive
16,EASNCFAIRHFENKFAVETLICVVFTY,inactive
17,EASNCFAIRHFENKFAVETLICDCYRLSKSFRML,inactive
18,EASNCFAIRHFENKFAVETLICAFRYGFCLDGYR,-0.295
19,EASNCFAIRHFENKFAVETLICASPCHDSGDGKK,inactive
20,EASNCFAIRHFENKFAVETLICAWLPERMWSRQ,5.06
21,EASNCFAIRHFENKFAVETLICAFRSNGSWPQCW,1.82
22,EASNCFAIRHFENKFAVETLICGCGLRYFAGMW,inactive
23,EASNCFAIRHFENKFAVETLICIPR,inactive
24,EASNCFAIRHFENKFAVETLICAHWPFQGVQHCP,inactive
25,EASNCFAIRHFENKFAVETLICVRKGRVMHWQST,inactive

# Same assay, conditions: random library (experiment): 2
row,Sequence,amyloid nucleation score
1,EASNCFAIRHFENKFAVETLICIWDFCSRGESWS,7.07
2,EASNCFAIRHFENKFAVETLICWYSYLDSSHRFQ,inactive
3,EASNCFAIRHFENKFAVETLICCYFYDADRVWCG,4.24
4,EASNCFAIRHFENKFAVETLICMLSCVNGWRTPE,5.53
5,EASNCFAIRHFENKFAVETLICCYCVIRLIQMEE,inactive
6,EASNCFAIRHFENKFAVETLICLLSYCHYIFGVS,inactive
7,EASNCFAIRHFENKFAVETLICWESRSERQWVQG,1.18
8,EASNCFAIRHFENKFAVETLICGEGEREREAGGV,0.683
9,EASNCFAIRHFENKFAVETLICDMAFLSDMFRGM,4.24
10,EASNCFAIRHFENKFAVETLICREYPNVYGRVLI,inactive
11,EASNCFAIRHFENKFAVETLICVFRY,inactive
12,EASNCFAIRHFENKFAVETLICAFWIGLVSRLMW,0.47
13,EASNCFAIRHFENKFAVETLICVGCSSLVRNASF,7
14,EASNCFAIRHFENKFAVETLICLVYVCSVVVSKW,inactive
15,EASNCFAIRHFENKFAVETLICRFCTNCELYAPA,3.91
16,EASNCFAIRHFENKFAVETLICMSVVDEVPVVTG,inactive
17,EASNCFAIRHFENKFAVETLICAFHLFLRIHRDS,inactive
18,EASNCFAIRHFENKFAVETLICTGNG,inactive
19,EASNCFAIRHFENKFAVETLICCIETGRNFFLGW,inactive
20,EASNCFAIRHFENKFAVETLICHSSLGRTRSWYT,4.42
21,EASNCFAIRHFENKFAVETLICVVRCIGVCGLAC,inactive

row,Sequence,amyloid nucleation score
1,EASNCFAIRHFENKFAVETLICTLP,inactive
2,EASNCFAIRHFENKFAVETLICAFYAECFIFLRN,inactive
3,EASNCFAIRHFENKFAVETLICMRIRWCPRMCLG,inactive
4,EASNCFAIRHFENKFAVETLICVHVRMRWLYKKE,inactive
5,EASNCFAIRHFENKFAVETLICCVPLCSM,7.78
6,EASNCFAIRHFENKFAVETLICFGVTVIC,7.1
7,EASNCFAIRHFENKFAVETLICAVH,inactive
8,EASNCFAIRHFENKFAVETLICVILFYAFVLSMG,6.48
9,EASNCFAIRHFENKFAVETLICHLRSLQNTWDG,inactive
10,EASNCFAIRHFENKFAVETLICRVGWPHFFMSHA,inactive
11,EASNCFAIRHFENKFAVETLICRSQTLRRMILFM,-0.986
12,EASNCFAIRHFENKFAVETLICTTDNNSLSCTEH,inactive
13,EASNCFAIRHFENKFAVETLICRFFNLDS,1.34
14,EASNCFAIRHFENKFAVETLICVNTYLFVIIFLN,inactive
15,EASNCFAIRHFENKFAVETLICPGLC,inactive
16,EASNCFAIRHFENKFAVETLICMFLG,4.54
17,EASNCFAIRHFENKFAVETLICWTYNPIARVVSY,inactive
18,EASNCFAIRHFENKFAVETLICFQRPVYYFSCIA,inactive
19,EASNCFAIRHFENKFAVETLICGMLPDNYQDCGI,inactive
20,EASNCFAIRHFENKFAVETLICHVSSIDTKSLVC,inactive
21,EASNCFAIRHFENKFAVETLICLSYYDPSVYVYR,4.19

# Same assay, conditions: random library (experiment): 3
row,Sequence,amyloid nucleation score
1,EASNCFAIRHFENKFAVETLICAVAVCDGQLSLG,2.89
2,EASNCFAIRHFENKFAVETLICFVIDP,6.06
3,EASNCFAIRHFENKFAVETLICWLAGWRFPLMK,inactive
4,EASNCFAIRHFENKFAVETLICLHIVMDGGVCYV,inactive
5,EASNCFAIRHFENKFAVETLICDLMARCDGDLHG,inactive
6,EASNCFAIRHFENKFAVETLICEGPGSSVVEDWP,inactive
7,EASNCFAIRHFENKFAVETLICRCLSVVGRRAEL,inactive
8,EASNCFAIRHFENKFAVETLICWSKSFSTWYGLE,inactive
9,EASNCFAIRHFENKFAVETLICIVICEQTNDDQR,7.95
10,EASNCFAIRHFENKFAVETLICLLLDSLSRRWEG,inactive
11,EASNCFAIRHFENKFAVETLICCVPENCSQSTVA,inactive
12,EASNCFAIRHFENKFAVETLICLSKGCNRRHRKG,3.65
13,EASNCFAIRHFENKFAVETLICGVSV,inactive
14,EASNCFAIRHFENKFAVETLICLRRGGTGDGRKP,3.57
15,EASNCFAIRHFENKFAVETLICTGGWPLAPMPSR,inactive
16,EASNCFAIRHFENKFAVETLICGRSFHRGWAECR,inactive
17,EASNCFAIRHFENKFAVETLICYSGGLLPLGRTG,2.52
18,EASNCFAIRHFENKFAVETLICCML,8.55
19,EASNCFAIRHFENKFAVETLICLYHHGSFRLLPQ,inactive
20,EASNCFAIRHFENKFAVETLICVVRPVK,inactive
21,EASNCFAIRHFENKFAVETLICVVWAMNLAILRG,inactive
22,EASNCFAIRHFENKFAVETLICGWNR,3.7
23,EASNCFAIRHFENKFAVETLICMGRSSSWRSCV,inactive
24,EASNCFAIRHFENKFAVETLICTMPQREQSSVEN,inactive
25,EASNCFAIRHFENKFAVETLICINSEFPLSGLPC,3.52
26,EASNCFAIRHFENKFAVETLICMMAVLRSLCVNG,-0.274
27,EASNCFAIRHFENKFAVETLICEDYEVPSHTARL,inactive
